# Measurements published in PubChem BioAssay AID1347073 (National Center for Advancing Translational Sciences (NCATS), 2019).
# About 200 (0.44%) of roughly 45,000 compounds were called active. About 7% were inconclusive and are not listed. Calls follow the shape of the dose curve; as a rule, active = well fitted activation curve with a large enough effect; inconclusive = small, poorly fitted or top-dose-only effect; inactive = no such curve, though single readings can be large or run the other way. The list shows a part of the results.
# Assay: qHTS of TDP-43 Inhibitors: NCGC Sytravon Library Screen; also: 0% is about no effect; nearly all actives have a fitted effect of over 55% in size
# Conditions: yeast TDP-43 toxicity rescue, BacTiter-Glo growth, 24 h; series mostly up to 46.1 µM; growth rescue (activation): at the top concentration
# In short: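 TDP-43-expressing yeast, pregrown in raffinose, seeded at OD600 0.02 in galactose medium with compound for 24 hr at 30 deg C. Growth read by BacTiter-Glo luminescence, so rescue of toxicity appears as activation.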
row,Structure (SMILES),growth rescue (activation)
1,O=C(Cc1ccccc1)Nc1ccc(NC(=O)c2cccnc2)cc1,inactive: -3.33%
2,Cc1ccc(S(=O)(=O)NCC(=O)N(CC(=O)NC(C)(C)C)Cc2ccc3c(c2)OCO3)cc1,inactive: 5.64%
3,CNc1cc(-c2ccc(C(=O)OC)cc2)ncn1,inactive: -19.6%
4,Cc1nc(SCC(=O)N2CCCCC2)c2c(C)c(C)sc2n1,inactive: 7.24%
5,COc1cccc(-c2cc3nc(NCc4ccccc4OC)n(C)c(=O)c3s2)c1,inactive: 8.02%
6,CC(=O)c1c(C)[nH]c(C(=O)COC(=O)c2cc(S(=O)(=O)N(C)c3ccccc3)ccc2Cl)c1C,inactive: -14.8%
7,CCc1ccc(NC(=O)COC(=O)CCCC2=NS(=O)(=O)c3ccccc3N2)cc1,inactive: 8.51%
8,CCOC(=O)CC1=C(C(=O)OCC)C(c2cccs2)C(C#N)=C(N)O1 (stereo unspecified),inactive: -0.694%
9,COc1ccc(/C=C(/NC(=O)c2ccco2)C(=O)N2CCc3ccccc32)cc1OC,inactive: 0.259%
10,COc1ccc(CCn2nnnc2CN2CCN(C(=O)c3ccco3)CC2)cc1OC,inactive: 8.96%
11,COc1ccc(F)cc1-c1cc(C(=O)NCc2ccc(F)cc2)[nH]n1,inactive: 27.2%
12,COCCn1cnc2c1c(=O)n(CC(=O)OCC(=O)NCC(F)(F)F)c(=O)n2Cc1ccccc1,inactive: -22.6%
13,COc1ccc(CCNc2ncccc2C#N)cc1OC,inactive: 11.7%
14,Cc1ccc(C)c(CN2CCC(CNC(=O)Nc3ccc(C)c(C)c3)CC2)c1,inactive: 6.53%
15,COc1cc2c(cc1OC)C1CC(=O)C(CC(C)C)CN1CC2 (stereo unspecified),inactive: 11%
16,CSCCC(N=C(NS(=O)(=O)c1ccc(Br)cc1)c1ccccc1)C(=O)O (stereo unspecified),inactive: 3.43%
17,O=C1C=C(Nc2ccc(O)cc2)C(=O)c2ccccc21,inactive: -3.39%
18,O=C(CCCOc1ccccc1)OCn1nnc2ccccc2c1=O,inactive: 17.8%
19,CCOc1ccc(NC(=S)N2CCC(C(O)(c3ccccc3)c3ccccc3)CC2)cc1,inactive: -13%
20,CC(=O)Nc1cccc(-c2ccnc3c2CC(C)(C(=O)Nc2ccc(C(C)C)cc2)O3)c1 (stereo unspecified),inactive: 5.38%
21,CCCCNC(=S)Nc1cc([N+](=O)[O-])ccc1C,inactive: 11%
22,FC(F)Sc1ccc(NC(=S)NC(c2ccccc2)c2ccccc2)cc1,inactive: 8.48%

row,Structure (SMILES),growth rescue (activation)
1,Cc1ccc(N(C(=O)CNC(=O)c2ccco2)C(C(=O)NC2CCCC2)c2ccncc2)cc1 (stereo unspecified),inactive: 1.58%
2,COC(=O)c1c[nH]n2c(=O)c(C(C)C)c(C)nc12,inactive: 8.96%
3,CCOc1ccc(C(=O)Nc2cccc(C(C)=O)c2)cc1[N+](=O)[O-],inactive: 5.39%
4,COc1ccc(OC)c(C2/C(=C(/O)c3cnn(-c4ccccc4)c3C)C(=O)C(=O)N2CCN(C)C)c1 (stereo unspecified),inactive: -0.125%
5,COCCNC(=O)CN(Cc1ccccc1)C(=O)CCC(=O)Nc1nccs1,inactive: 2.78%
6,CCOc1ccccc1NC(=O)COC(=O)c1c(CC)noc1C,inactive: -2.82%
7,COCCNC(=O)CSc1nc2sccc2c(=O)n1-c1ccccc1,inactive: 1.63%
8,O=C(N/N=C/C=C/c1ccco1)c1ccccc1Cl,inactive: 16.2%
9,O=C(O)CNC(=O)c1ccc(NC(=O)/C(=C/c2cccc([N+](=O)[O-])c2)NC(=O)c2ccco2)cc1,inactive: 3.39%
10,CCCCOC(=O)CN1C(=O)c2ccc(C(=O)OCCCC)cc2C1=O,inactive: 21.4%
11,COc1cc(NC(=O)c2cccnc2)c(OC)cc1NC(=O)c1ccc(Br)cc1,inactive: 10.8%
12,CCOc1ccccc1N(CC(=O)NCc1ccco1)C(=O)CCC(=O)Nc1nccs1,inactive: 7.62%
13,O=C(c1cccc(Br)c1)N1CCN(S(=O)(=O)N2CCCCCC2)CC1,inactive: 25.9%
14,CC1(C(=O)NS(=O)(=O)Cc2cccc(Cl)c2)CCN1C(=O)Cc1ccc(Cl)cc1Cl (stereo unspecified),inactive: 6.35%
15,CCOc1ccc(C(=O)c2ccccc2C(=O)O)cc1OCC,inactive: 11.7%
16,CCOc1ccc(NCc2cccn2-c2nnc(N3CCC(C(=O)NCCCN4CC(C)CC(C)C4)CC3)s2)cc1 (stereo unspecified),inactive: -5.01%
17,CN(C)CC(C)(C)CNCc1cc(=O)oc2ccc3ccccc3c12,inactive: -13.5%
18,Cc1cccc(NC(=O)Nc2nnc(-c3ccccc3)o2)c1,inactive: 10.8%
19,O=C(NN1C(=O)C2C3c4ccccc4C(c4ccccc43)[C@@H]2C1=O)c1ccccc1 (stereo partly specified),inactive: -12.8%
20,Cc1cccc(NC(=O)CN2C(=O)C(c3ccc(F)cc3)=NC23CCCCCC3)c1,inactive: 14.8%
21,COc1ccccc1C(=O)Nc1ccc(N2CCN(C(C)=O)CC2)cc1,inactive: 3.41%
22,Cc1c(F)cccc1NS(=O)(=O)c1ccc(OCCNS(C)(=O)=O)cc1,inactive: -11.4%

row,Structure (SMILES),growth rescue (activation)
1,Cc1ccnc(NC(=O)c2cc3cc(F)ccc3s2)c1,inactive: 12.9%
2,Cc1c(C)c2c(OCC(=O)N[C@@H](CC(C)C)C(=O)O)cc3c(c2oc1=O)CCC(C)(C)O3,inactive: 1.41%
3,COC(=O)c1nc(NNC(=O)c2ccccc2)sc1-c1ccccc1,inactive: 6.61%
4,Cc1cc(C(=O)OCC(=O)NCc2ccccc2)c2ccccc2n1,inactive: 9.44%
5,O=C(CNc1cccc2ccccc12)N/N=C/c1ccc(OC(=O)/C=C/c2ccco2)cc1,inactive: 5.68%
6,O=C(Nc1cccc(-c2nnc(-c3ccco3)o2)c1)c1ccccc1,inactive: -5.7%
7,Cn1cc(CN2CCC(C(O)c3cccs3)CC2)c(-c2ccccc2F)n1 (stereo unspecified),inactive: 32.2%
8,O=C(NCc1cccc(Cl)c1)c1cc2c(s1)-c1ccccc1SC2,inactive: 16.4%
9,Cc1ccc(C(C)(C)C)cc1S(=O)(=O)Nc1cccc(S(=O)(=O)NC2=NCCC2)c1,inactive: 11.1%
10,CC(NC(=O)c1ccccc1)c1nnc(SCC(=O)NC2=NCCS2)n1C (stereo unspecified),inactive: -15.2%
11,Cc1ccnn1-c1ccc(C(=O)OCC(=O)Nc2ccc(F)cc2)cc1,inactive: -4.51%
12,Cc1ccc(C(=O)NC2CC(C)(C)NC(C)(C)C2)cc1,inactive: 7.06%
13,COC(=O)c1ccc(NC(=O)COc2ccc3c(c2)OCO3)cc1,inactive: 7.96%
14,CCOc1ccccc1NC(=O)[C@@H](NC(=O)c1cccc(S(=O)(=O)N2CCOCC2)c1)C(C)C,inactive: 9.13%
15,Cc1ccc2c(c1)C(c1ccc([N+](=O)[O-])cc1)=NNC(c1ccc(Br)cc1)=N2,inactive: 23%
16,O=C(NCc1ccc(Cl)cc1)C1CC(O)CN1S(=O)(=O)c1ccc(Cl)cc1 (stereo unspecified),inactive: -6.91%
17,CCCc1nnc(NC(=O)CCC(=O)N2CCN(S(=O)(=O)c3ccc(C)cc3)CC2)s1,inactive: 6.7%
18,CC(NC(=O)CCl)c1ccccc1Br (stereo unspecified),inactive: -6.68%
19,CC(C)C(=O)NC(=S)Nc1ccccc1N1CCN(C(=O)c2ccc(Cl)cc2)CC1,inactive: -1.24%
20,N#C/C(=C\c1ccccc1O)C(=O)Nc1cccnc1,inactive: 27.6%
21,COCCN(CCOC)C(=O)CN1C(=O)NC2(CCCc3sccc32)C1=O (stereo unspecified),inactive: 5.82%
22,COCc1nnc(NC(=O)c2ccc(OC)cc2OC)s1,inactive: 7.16%

row,Structure (SMILES),growth rescue (activation)
1,Clc1ccc(OCc2cn3cccnc3n2)c2ncccc12,inactive: 23.8%
2,COc1cc(/C=N/NC(=O)CN2CCOCC2)ccc1OCc1ccccc1,inactive: 24.9%
3,COc1cc(NC(=S)NCCCN2CCOCC2)cc(OC)c1OC,inactive: 2.84%
4,CCCN1C(=O)C(O)(CC(=O)c2ccc(C(C)C)cc2)c2ccccc21 (stereo unspecified),inactive: 8.6%
5,Cn1c(NCc2ccccc2F)nc2cc(-c3ccccc3)sc2c1=O,inactive: 21.6%
6,CC1(C)CC(=O)c2sc(NC(=O)C(C)(C)C)nc2C1,inactive: 0.855%
7,O=[N+]([O-])c1ccc(OCC(O)CN(C2CCCCC2)C2CCCCC2)cc1 (stereo unspecified),inactive: 10.9%
8,CC(=O)Nc1ccc(NC(=O)COc2ccc(S(=O)(=O)N3CCCC3)cc2C)cc1,inactive: -9.43%
9,CN(Cc1cn[nH]c1-c1ccc2c(c1)OCO2)C1CCOCC1,inactive: -20%
10,Cn1c(N)c(C(=O)COC(=O)COc2ccc(Cl)cc2Cl)c(=O)n(C)c1=O,inactive: 8.55%
11,C(=N\N(c1ccccc1)c1ccccc1)/c1ccc(N2CCOCC2)s1,inactive: 22.7%
12,O=C(NCc1ccc(F)cc1)c1cc(-c2ccncc2)nc2ccccc12,inactive: 2.52%
13,COc1ccc(N(C(=O)c2ccc(Cl)cc2)C2=CC3CCC(C2)N3C)cc1 (stereo unspecified),inactive: 2.23%
14,CC(=O)C1C(c2ccc(Br)cc2)c2c(noc2C)CC1(C)O (stereo unspecified),inactive: 20.4%
15,CC(C)OC(=O)CSc1nnc(-c2ccc([N+](=O)[O-])cc2)o1,inactive: 13.5%
16,CN(CC(=O)NCCc1ccc(S(N)(=O)=O)cc1)S(=O)(=O)/C=C/c1ccccc1,inactive: -3.53%
17,COc1ccccc1NC(=O)/C=C1\SCC(=O)N1C,inactive: 17.3%
18,COc1ccc(Cl)cc1NC(=O)c1cc(-c2cc(C)ccc2O)n[nH]1,inactive: 25.6%
19,CCN(CC)C(=O)CSc1nc(OC)cc(=O)[nH]1,inactive: 11.9%
20,O=C(O)C1C2C=CC(C2)C1C(=O)N1CCN(CCO)CC1 (stereo unspecified),inactive: 15.6%
21,N#Cc1ccc(OCC(=O)Nc2ccncc2)cc1,inactive: -56.9%
22,COC(=O)C1=C(C)NC(=O)/C1=C/c1ccc(CNS(=O)(=O)c2ccc(C)cc2)o1,inactive: -3.58%

row,Structure (SMILES),growth rescue (activation)
1,CCN(CC)S(=O)(=O)c1ccc(N2CCCC2)c(NC(=O)c2c(-c3ccccc3)noc2C)c1,inactive: 13.8%
2,O=C1NC2(CCCC2)C(=O)N1Cc1cc(=O)n2ccsc2n1,inactive: -8.99%
3,CC(=O)Nc1ccc(NC(=O)C(C)N(C)CC(=O)Nc2ccccc2Br)cc1 (stereo unspecified),inactive: 2.86%
4,NC(=O)Nc1ccc(C(=O)OCC(=O)c2c[nH]c3ccccc23)cc1,inactive: 2.63%
5,CO/N=C/CC(=O)c1ccc(OC)cc1,inactive: 4.44%
6,CC(=O)NC(c1ccccc1)c1c(O)ccc2ccccc12 (stereo unspecified),inactive: 12.6%
7,Cc1ccc(OCCN(C)C(=O)c2cc(COc3ccc(F)cc3F)on2)cc1,inactive: 14.5%
8,CCC(CC)C(=O)Nc1c2c(nn1-c1ccc(F)cc1)CS(=O)(=O)C2,inactive: 4.36%
9,CC1CCCC(C)N1C(=O)CSc1nc2c(c(=O)n(C)c(=O)n2C)n1C (stereo unspecified),inactive: -1.28%
10,CN(C)C(CNC(=S)Nc1cccc(Cl)c1)c1cccnc1 (stereo unspecified),inactive: -1.99%
11,Cc1ccc(CN2CCNC(=O)C2CC(=O)N(C)C(C2CC2)C2CC2)o1 (stereo unspecified),inactive: -6.44%
12,Cc1ccc(CN2CCN(Cc3ccc(O)cc3)CC2CCO)o1 (stereo unspecified),inactive: 7.31%
13,COCC1CCCN(Cc2cn[nH]c2-c2cc3ccccc3o2)C1 (stereo unspecified),inactive: 0.29%
14,CCOC(=O)C(C)Sc1nc2c(cnn2-c2ccc(F)cc2)c(=O)[nH]1 (stereo unspecified),inactive: 6.61%
15,Cc1cc(C)c2nc(SCC(=O)Nc3cc(C)on3)c(C)cc2c1,inactive: -7.97%
16,Cc1ccccc1-c1cc2nc(NCCOc3ccccc3)n(C)c(=O)c2s1,inactive: 11.6%
17,C=CCN1C(=O)C(CCCC)NC1=S (stereo unspecified),inactive: 11.2%
18,COc1ccc(NC(=O)N2CCC(CO)(CC3CCCCO3)CC2)c(OC)c1 (stereo unspecified),inactive: 29.6%
